The other results are listed elsewhere or left out.
B1: chr1:35650007:35650008:-_ENSG00000116560_ENST00000357214|hu_mus|FALSE|FALSE (ssRNA)
RNA: GGGAGUUCUACAGUCCGACGAUCCUAACAUCCAUAAAAAGGUAGCUUGCUUACUAAAAUGCCAAGAAUUUAAGUGGUAUCUAAACAAGAAAAGACAAAACCAAACUAGAAUGAAAGCCUAAAUAUCUAAAAUCGGGGUUUUUUCAACAGAGGAUUGAGCAUCA
B2: 53586803_53589017_1067_CDS_ENSG00000023287_ENST00000025008|human|control|control (ssRNA)
RNA: GGGAGUUCUACAGUCCGACGAUCCUUGGCCAUUACUGAAACUGCAGUUCCUAAAUGAGUAAGUUUUAACUUGAUGUCUUCUAUGGACUGCAGAUAAUUUGAAUAAAUACUUUCAAACUUGAAAAGUAGCUUUUGGUAUGAAUUCAACAGAGGAUUGAGCAUCA
B3: chr16:1877921:1877922:+_ENSG00000180185_ENST00000427358|hu_hu|FALSE|FALSE (ssRNA)
RNA: GGGAGUUCUACAGUCCGACGAUCAUUGUGACAUUUAAUAGCCGUUGCUUGCUCUUGUCUUGCUCCCUUCUCUCUCGAAACUUGUUAAGAAAUAACUCAAUAUUCUGGCUUUUCCACUUUAAAUGUCAUACUGACCAGCCCGUGCAACAGAGGAUUGAGCAUCA
B4: chr11:87793471:87793472:-_ENSMUSG00000020483_ENSMUST00000020775|mus_mus|mus_mus_mus_hu_False|28_78 (ssRNA)
RNA: GGGAGUUCUACAGUCCGACGAUCUGGACUUGAAAAUAAAAGAAUAAGCUGGAUCCCCCCACCCCUUACAUUGUCAACCCUACACGAGAGUUUUGAAGGCGACUCAUGAAUCAGCAGAGCUCAAACGGCAAUGACCACCCCACCCAACAGAGGAUUGAGCAUCA
B5: chr12:111951244:111951245:-_ENSG00000204842_ENST00000535949|hu_mus|FALSE|FALSE (ssRNA)
RNA: GGGAGUUCUACAGUCCGACGAUCCCUUGGAACCCCACUGACCACUGAGGACCACGUUCCCCCUGCAGGACUGGUCCUUGCCACUGGAGGAGCAGCUGCUUCACUUGGGGGAUUGUGGGAUACAAAUUCUAGGCCACUAGACAUCAACAGAGGAUUGAGCAUCA
B6: chr5:23024286:23024287:-_ENSMUSG00000062604_ENSMUST00000088392|mus_mus|FALSE|FALSE (ssRNA)
RNA: GGGAGUUCUACAGUCCGACGAUCGCAAGCUGUACUCCAAAUGUCUGCAGGUGUGCUGUAGCCUGCUCCUAUUAAAACCUCUAUGGACCUAUACUGACGUGUCUGGAUAUCCUCUGUGAAAUGUUUAUGCACCCAACAAGCAUUCAACAGAGGAUUGAGCAUCA
B7: chr4:25749455:25749456:-_ENSG00000091490_ENST00000264868|hu_hu|hu_hu_hu_mus_False|1_48 (ssRNA)
RNA: GGGAGUUCUACAGUCCGACGAUCGCACUAUGACCUCUAGAAAAAUCCACAGGGGGAAAAAAUGUAAACCAAUGUACAAUGUUAUCGCCCUCCCUGCGUGUGGAGUGUUUGUCUCAAGGCUCCUUCUAGCUGCUGGACUGCUAGCAACAGAGGAUUGAGCAUCA
B8: chr2:27599549:27599550:+_ENSG00000115234_ENST00000233575|hu_hu|FALSE|FALSE (ssRNA)
RNA: GGGAGUUCUACAGUCCGACGAUCCAGACAUCCAAGCAGUGGAGAUUACAGAUCCUCAUCUCCAAUGCCCUCGAAGGCGAAAUUGCCGUGGACAUCACUGGCACUGGCAUCUGUGCUGGGACUGCCAAUUCCCCGCAAGCUCACCAACAGAGGAUUGAGCAUCA
B9: chr17:60770872:60770873:+_ENSG00000011028_ENST00000303375|hu_hu|hu_hu_hu_mus_True|8_8 (ssRNA)
RNA: GGGAGUUCUACAGUCCGACGAUCUCUUUAAAAAAAAAAAAAAAAAGACAAACAAUAAUAGCACAUUUCGAGAAUCAAGAACUACAAUAGAGGGUCCGCUUUGAGUUUUUGUUCACAUCGUCCUGCAACGCUGUCGCGGGACUGCAACAGAGGAUUGAGCAUCA
B10: 31538562_31538682_760_CDS_ENSG00000082213_ENST00000325366|human|control|control (ssRNA)
RNA: GGGAGUUCUACAGUCCGACGAUCAGUCUGGCAUUCCUGAUUUUCAGAAGAACAUGAACAUGAUGGUUCUAGGCAAGUCUGGUCACUUCUCUGUGUUGCUGUGUCCUUUUCCAGUCCUUCUGAAGAAGAGUCACAGUUAGUAGACAACAGAGGAUUGAGCAUCA
B11: chr16:2758876:2758877:+_ENSG00000167977_ENST00000301738|hu_mus|motif|central (ssRNA)
RNA: GGGAGUUCUACAGUCCGACGAUCAAGUUUUAAUAUCAUUAAAUUAAAAAAACAGAAACAAAAACCCCCAGAAGCCGGUCGGUUGUCAAAGUCAUAAAUGAAGCAAUGCUGAGUGUCCAGCCACUCCCCAGAGCAUCCCCAUGGCAACAGAGGAUUGAGCAUCA
B12: chr8:27667896:27667897:-_ENSG00000168078_ENST00000301905|hu_mus|FALSE|FALSE (ssRNA)
RNA: GGGAGUUCUACAGUCCGACGAUCAGCUUCAACGAUGUGUGCAGCAGACGGGCGAUCUUUAGGAUCCUCAUUAGUGCACACACAGAAGAGUUCAAUGGCCUUCUGGUAGGAGUCAUCCAGCUCUUCCAUGUUGAUGGAUGGCCUCAACAGAGGAUUGAGCAUCA
B13: 87446211_87446331_1862_CDS_ENSG00000140948_ENST00000268616|human|control|control (ssRNA)
RNA: GGGAGUUCUACAGUCCGACGAUCGGGUGCGGACGCGGGCAGCACGUCCAUCAUGGCGCUGCCAAAGCUCUUGUCCACUUUCAUGCUGCUUCUUGGUCCAGAUCCUUUAUUCCUUUCUUCUAGAGACAAAAGUGAGUGCACAGACAACAGAGGAUUGAGCAUCA
B14: 193605883_193606003_5042_3pUTR_ENSMUSG00000026623_ENSMUST00000110855|mouse|control|control (ssRNA)
RNA: GGGAGUUCUACAGUCCGACGAUCGCCGGGAACUAGCACACCUGCUACACAGUCUCAUCUGCCUCUCUCUUGCCUGCUGAUAGCUAUAAGGCCCAGAGCACUUGGAGGGCAAAAUUCCCAUCAAAGGCCAUUACCAUUCAUCCUCAACAGAGGAUUGAGCAUCA
B15: 98513226_98513889_1220_3pUTR_ENSG00000140450_ENST00000268042|human|control|control (ssRNA)
RNA: GGGAGUUCUACAGUCCGACGAUCGGGUUGAGGGUAAGGAGGAAUGUGUCUAGAGAAUUCUUCCUCUGAUACCACAUCUGCAUAAUUUGGUGGUGCUUCAGGCUGCUCUGGCAGGGUCAGUGUCAACCAGCUCAUAUCCAUACUCAACAGAGGAUUGAGCAUCA
B16: chr15:51794541:51794542:-_ENSMUSG00000022314_ENSMUST00000022927|mus_hu|motif|central (ssRNA)
RNA: GGGAGUUCUACAGUCCGACGAUCCUGAAGUCUGAGUUUCAAAAGUGAUUUUUUUUUCCCACAAAAGUUUCAACACUUAAGCGGGAACUUUCAGUGUUAACUUUGCCCUAAAAAGUUAAGACAUUCUGAUAAUCAUAACAGUCACAACAGAGGAUUGAGCAUCA
B17: chr16:94913618:94913619:+_ENSMUSG00000022897_ENSMUST00000122284|mus_mus|motif|central (ssRNA)
RNA: GGGAGUUCUACAGUCCGACGAUCAGUCAUGUAAUGUGCAGGACCUGUAUUAGCAGAAAAUUGGUAUGUUGGAUGUCCAGCGGUGCCAGUCUCUUGGCGGGGAUUGGAGUAGACGGUCAAAUUAACGUCCAUAGCUCCAUUCUGCAACAGAGGAUUGAGCAUCA
B18: chr2:160605069:160605070:+_ENSG00000136536_ENST00000409591|hu_hu|FALSE|FALSE (ssRNA)
RNA: GGGAGUUCUACAGUCCGACGAUCAGCUCCAAGAGGAUCAUUCUGUGCUUCAAGGUGAACCACUUCAUUUGAUUCUCUUCUAAAAAUAUGAGAUCUAGAUGAUGUAUCAGAGGUAGGUAUCCUUGAAGAUUCAUCUCUUCCCUCCAACAGAGGAUUGAGCAUCA
B19: 49445221_49445341_2184_CDS_ENSG00000167548_ENST00000301067|human|control|control (ssRNA)
RNA: GGGAGUUCUACAGUCCGACGAUCCUCAGGCCGGGGUGACAGGUGCGGCCCCUCGGACCGGGGGCAGAGUUGCGGCUCCUCAGGUAGUGGCAACAGGGGUGACUCCUCCAGCGGCAGGGACAUGAGCGAGUCCUCCGGUGGUGGCAACAGAGGAUUGAGCAUCA
B20: 31822757_31825123_730_3pUTR_ENSMUSG00000053134_ENSMUST00000065388|mouse|control|control (ssRNA)
RNA: GGGAGUUCUACAGUCCGACGAUCCUGUCACAGGCUCUCCUUUCCCGCGGUAAAAGUCACUCUCUGGGUCACUGUGCCGGAUCUGGAAUGGAGCAUUGGGAUUUUUACAGUCUAAAGGCUGGAGGUCAUCAGGGAGAGGAGGUGCAACAGAGGAUUGAGCAUCA
B21: chr4:57314706:57314707:+_ENSG00000128050_ENST00000264221|hu_mus|hu_hu_hu_mus_True|38_38 (ssRNA)
RNA: GGGAGUUCUACAGUCCGACGAUCCAGAAUUUCAAAAAUAGCUUGUGUGGCAUGACUCAUGAUGUCCACUUCAGUCUGCCCUAUAACAAGGCCAGCAAAGCAAAAUUUUGCAGCAAUGAGUUGCUCCUCAGACCACUGUGGAUCCAACAGAGGAUUGAGCAUCA
B22: chr3:148802587:148802588:-_ENSG00000071794_ENST00000310053|hu_mus|hu_hu_hu_mus_False|98_108 (ssRNA)
RNA: GGGAGUUCUACAGUCCGACGAUCUCCAACCACAUGACCUCUCAAACUUCCAAAUAAAACCAAAUCUUGCUCUUCAUCACUCGUUAGGAAGUCAUCUGGAGGAAUAAUGUCUUGGAAUUCAAAAUGUGGCAAGAAAGUUGAGUACAACAGAGGAUUGAGCAUCA

Molecular target: T1, UNK ZnF1-3 (human, UniProt Q9C0B0 31-174)
T1 sequence: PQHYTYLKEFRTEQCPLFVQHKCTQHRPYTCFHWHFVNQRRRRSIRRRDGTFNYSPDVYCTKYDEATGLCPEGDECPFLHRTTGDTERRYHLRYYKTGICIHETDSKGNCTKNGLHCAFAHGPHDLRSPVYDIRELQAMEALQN
Experiment: nsRBNS (natural sequence RNA bind-n-seq); RBNS binding buffer (assumed for nsRBNS): 25 mM Tris pH 7.5, 150 mM KCl, 3 mM MgCl2, 0.01% Triton X-100, 500 ug/ml BSA, 20 U/ml SUPERase-In, 4 C; UNK is unkempt and MSI1 is Musashi-1; names of the RNAs are library labels; protein concentration not given here; high values mean tight binding

| Binder | binding signal |
| --- | --- |
| B1 | 1.13 enrichment R |
| B2 | 0.716 enrichment R |
| B3 | 0.711 enrichment R |
| B4 | 1.46 enrichment R |
| B5 | 0.788 enrichment R |
| B6 | 0.97 enrichment R |
| B7 | 0.878 enrichment R |
| B8 | 0.972 enrichment R |
| B9 | 2.1 enrichment R |
| B10 | 0.666 enrichment R |
| B11 | 2.78 enrichment R |
| B12 | 0.396 enrichment R |
| B13 | 0.748 enrichment R |
| B14 | 1.22 enrichment R |
| B15 | 1.09 enrichment R |
| B16 | 0.511 enrichment R |
| B17 | 0.923 enrichment R |
| B18 | 1.07 enrichment R |
| B19 | 1.37 enrichment R |
| B20 | 1.66 enrichment R |
| B21 | 0.975 enrichment R |
| B22 | 1.25 enrichment R |

Source: PMC12136788
